{"source": "the supplement of paper PMC8728848", "binders": {"B1": {"name": "SSL (Salmo salar) (protein)", "chain": "TGAKGAEEGVVPAETRNQCPTGWFQFGSRCFMFVETARSWPLAERHCVSLGANLASVHSSADDQFLQAIAGCKTGAFSTTWIGGFDAVQDRLWFWSDGSEFDYQNWAKGEPNNSGGREPCIVINWGDEYRWNDIKCGNSFPSVCSKRICEIQKN"}}, "experiment_in_all_cases": "glycan array binding signal (z-score within array); higher = stronger binding", "details_in_all_cases": "glycan notation: IUPAC condensed, linker removed", "key": {"[1]": {"biological_target": "Fuc(a1-2)[GalNAc(a1-3)]Gal(b1-4)GlcNAc(b1-3)Gal(b1-4)GlcNAc", "outline": "(§1)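 Glycan array binding is given as a within-array Z-score, which can be read as non-binding when negative. The arrays, 3228 of them, came from the Consortium for Functional Glycomics database and were retained only where the protein sequence was available. Z-scores were averaged across arrays of the same protein sequence at different concentrations or buffers and across linkers.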"}, "[2]": {"biological_target": "Fuc(a1-2)[GalNAc(a1-3)]Gal(b1-4)GlcNAc(b1-3)Gal(b1-4)GlcNAc(b1-3)Gal(b1-4)GlcNAc", "outline": "as §1"}, "[3]": {"biological_target": "Fuc(a1-2)[GalNAc(a1-3)]Gal(b1-4)[Fuc(a1-3)]GlcNAc", "outline": "as §1"}, "[4]": {"biological_target": "Fuc(a1-2)[GalNAc(a1-4)]Gal(b1-4)GlcNAc", "outline": "as §1"}, "[5]": {"biological_target": "Fuc(a1-2)[GalNAc(b1-3)]Gal", "outline": "as §1"}, "Fuc(a1-3)GlcNAc": {"biological_target": "Fuc(a1-3)GlcNAc", "outline": "as §1"}, "[6]": {"biological_target": "Fuc(a1-3)[Gal(b1-4)]Glc6S", "outline": "as §1"}, "[7]": {"biological_target": "Fuc(a1-3)[Gal(b1-4)]GlcNAc", "outline": "as §1"}, "[8]": {"biological_target": "Fuc(a1-3)[Gal(b1-4)]GlcNAc(b1-2)Man(a1-3)[Fuc(a1-3)[Gal(b1-4)]GlcNAc(b1-2)Man(a1-6)]Man(b1-4)GlcNAc(b1-4)GlcNAc", "outline": "as §1"}, "[9]": {"biological_target": "Fuc(a1-3)[Gal(b1-4)]GlcNAc(b1-3)Gal(b1-3)[Fuc(a1-4)]GlcNAc", "outline": "as §1"}, "[10]": {"biological_target": "Fuc(a1-3)[Gal(b1-4)]GlcNAc(b1-3)GalNAc", "outline": "as §1"}, "[11]": {"biological_target": "Fuc(a1-3)[Gal(b1-4)]GlcNAc(b1-4)Gal(b1-4)[Fuc(a1-3)]GlcNAc", "outline": "as §1"}, "[12]": {"biological_target": "Fuc(a1-3)[Gal(b1-4)]GlcNAc(b1-4)Gal(b1-4)[Fuc(a1-3)]GlcNAc(b1-4)Gal(b1-4)[Fuc(a1-3)]GlcNAc", "outline": "as §1"}, "[13]": {"biological_target": "Fuc(a1-3)[Gal(b1-4)]GlcNAc(b1-6)[Gal(b1-3)GlcNAc(b1-3)]Gal(b1-4)Glc", "outline": "as §1"}, "[14]": {"biological_target": "Fuc(a1-3)[Gal(b1-4)]GlcNAc6S", "outline": "as §1"}, "[15]": {"biological_target": "Fuc(a1-3)[Gal3S(b1-4)]GlcNAc", "outline": "as §1"}, "[16]": {"biological_target": "Fuc(a1-3)[Gal3S(b1-4)]GlcNAc6S", "outline": "as §1"}, "[17]": {"biological_target": "Fuc(a1-3)[GalNAc(b1-4)]GlcNAc", "outline": "as §1"}, "Fuc(a1-4)GlcNAc": {"biological_target": "Fuc(a1-4)GlcNAc", "outline": "as §1"}, "Fuc(b1-3)GlcNAc": {"biological_target": "Fuc(b1-3)GlcNAc", "outline": "as §1"}, "Gal(a1-2)Gal": {"biological_target": "Gal(a1-2)Gal", "outline": "as §1"}, "Gal(a1-3)Gal": {"biological_target": "Gal(a1-3)Gal", "outline": "as §1"}, "Gal(a1-3)Gal(b1-3)GlcNAc": {"biological_target": "Gal(a1-3)Gal(b1-3)GlcNAc", "outline": "as §1"}, "[18]": {"biological_target": "Gal(a1-3)Gal(b1-3)GlcNAc(b1-2)Man(a1-3)[Gal(a1-3)Gal(b1-3)GlcNAc(b1-2)Man(a1-6)]Man(b1-4)GlcNAc(b1-4)GlcNAc", "outline": "as §1"}, "[19]": {"biological_target": "Gal(a1-3)Gal(b1-3)[Fuc(a1-4)]GlcNAc(b1-2)Man(a1-3)[Gal(a1-3)Gal(b1-3)[Fuc(a1-4)]GlcNAc(b1-2)Man(a1-6)]Man(b1-4)GlcNAc(b1-4)GlcNAc", "outline": "as §1"}, "Gal(a1-3)Gal(b1-4)Glc": {"biological_target": "Gal(a1-3)Gal(b1-4)Glc", "outline": "as §1"}, "Gal(a1-3)Gal(b1-4)GlcNAc": {"biological_target": "Gal(a1-3)Gal(b1-4)GlcNAc", "outline": "as §1"}, "[20]": {"biological_target": "Gal(a1-3)Gal(b1-4)GlcNAc(b1-3)GalNAc", "outline": "as §1"}, "[21]": {"biological_target": "Gal(a1-3)Gal(b1-4)[Fuc(a1-3)]GlcNAc", "outline": "as §1"}, "[22]": {"biological_target": "Gal(a1-3)Gal(b1-4)[Fuc(a1-3)]GlcNAc(b1-2)Man(a1-3)[Gal(a1-3)Gal(b1-4)[Fuc(a1-3)]GlcNAc(b1-2)Man(a1-6)]Man(b1-4)GlcNAc(b1-4)GlcNAc", "outline": "as §1"}, "Gal(a1-3)GalNAc": {"biological_target": "Gal(a1-3)GalNAc", "outline": "as §1"}, "[23]": {"biological_target": "Gal(a1-3)[Gal(a1-4)]Gal(b1-4)GlcNAc", "outline": "as §1"}, "[24]": {"biological_target": "Gal(a1-4)Gal(b1-3)GlcNAc(b1-2)Man(a1-3)[Gal(a1-4)Gal(b1-3)GlcNAc(b1-2)Man(a1-6)]Man(b1-4)GlcNAc(b1-4)GlcNAc", "outline": "as §1"}, "Gal(a1-4)Gal(b1-4)Glc": {"biological_target": "Gal(a1-4)Gal(b1-4)Glc", "outline": "as §1"}, "Gal(a1-4)Gal(b1-4)GlcNAc": {"biological_target": "Gal(a1-4)Gal(b1-4)GlcNAc", "outline": "as §1"}, "[25]": {"biological_target": "Gal(a1-4)Gal(b1-4)GlcNAc(b1-2)Man(a1-3)[Gal(a1-4)Gal(b1-4)GlcNAc(b1-2)Man(a1-6)]Man(b1-4)GlcNAc(b1-4)GlcNAc", "outline": "as §1"}, "[26]": {"biological_target": "Gal(a1-4)Gal(b1-4)GlcNAc(b1-3)Gal(b1-4)Glc", "outline": "as §1"}, "Gal(a1-4)GlcNAc": {"biological_target": "Gal(a1-4)GlcNAc", "outline": "as §1"}, "Gal(a1-6)Glc": {"biological_target": "Gal(a1-6)Glc", "outline": "as §1"}, "Gal(b1-2)Gal": {"biological_target": "Gal(b1-2)Gal", "outline": "as §1"}, "Gal(b1-3)Gal": {"biological_target": "Gal(b1-3)Gal", "outline": "as §1"}, "Gal(b1-3)Gal(b1-4)GlcNAc": {"biological_target": "Gal(b1-3)Gal(b1-4)GlcNAc", "outline": "as §1"}, "[27]": {"biological_target": "Gal(b1-3)Gal(b1-4)GlcNAc(b1-2)Man(a1-3)[Gal(b1-3)Gal(b1-4)GlcNAc(b1-2)Man(a1-6)]Man(b1-4)GlcNAc(b1-4)GlcNAc", "outline": "as §1"}, "Gal(b1-3)GalNAc": {"biological_target": "Gal(b1-3)GalNAc", "outline": "as §1"}, "[28]": {"biological_target": "Gal(b1-3)GalNAc(a1-3)[Fuc(a1-2)]Gal(b1-4)Glc", "outline": "as §1"}}, "note": "Some of the results follow.", "data": [{"binder": "B1", "values": [{"measurement": "glycan array binding signal (z-score)", "setting": "[1]", "result": -0.182}, {"measurement": "glycan array binding signal (z-score)", "setting": "[2]", "result": -0.178}, {"measurement": "glycan array binding signal (z-score)", "setting": "[3]", "result": -0.141}, {"measurement": "glycan array binding signal (z-score)", "setting": "[4]", "result": -0.171}, {"measurement": "glycan array binding signal (z-score)", "setting": "[5]", "result": -0.158}, {"measurement": "glycan array binding signal (z-score)", "setting": "Fuc(a1-3)GlcNAc", "result": -0.147}, {"measurement": "glycan array binding signal (z-score)", "setting": "[6]", "result": -0.131}, {"measurement": "glycan array binding signal (z-score)", "setting": "[7]", "result": -0.14}, {"measurement": "glycan array binding signal (z-score)", "setting": "[8]", "result": -0.138}, {"measurement": "glycan array binding signal (z-score)", "setting": "[9]", "result": -0.176}, {"measurement": "glycan array binding signal (z-score)", "setting": "[10]", "result": -0.124}, {"measurement": "glycan array binding signal (z-score)", "setting": "[11]", "result": -0.111}, {"measurement": "glycan array binding signal (z-score)", "setting": "[12]", "result": -0.175}, {"measurement": "glycan array binding signal (z-score)", "setting": "[13]", "result": -0.183}, {"measurement": "glycan array binding signal (z-score)", "setting": "[14]", "result": -0.165}, {"measurement": "glycan array binding signal (z-score)", "setting": "[15]", "result": -0.17}, {"measurement": "glycan array binding signal (z-score)", "setting": "[16]", "result": -0.149}, {"measurement": "glycan array binding signal (z-score)", "setting": "[17]", "result": -0.151}, {"measurement": "glycan array binding signal (z-score)", "setting": "Fuc(a1-4)GlcNAc", "result": -0.181}, {"measurement": "glycan array binding signal (z-score)", "setting": "Fuc(b1-3)GlcNAc", "result": -0.167}, {"measurement": "glycan array binding signal (z-score)", "setting": "Gal(a1-2)Gal", "result": -0.143}, {"measurement": "glycan array binding signal (z-score)", "setting": "Gal(a1-3)Gal", "result": -0.153}, {"measurement": "glycan array binding signal (z-score)", "setting": "Gal(a1-3)Gal(b1-3)GlcNAc", "result": -0.145}, {"measurement": "glycan array binding signal (z-score)", "setting": "[18]", "result": -0.144}, {"measurement": "glycan array binding signal (z-score)", "setting": "[19]", "result": -0.169}, {"measurement": "glycan array binding signal (z-score)", "setting": "Gal(a1-3)Gal(b1-4)Glc", "result": -0.132}, {"measurement": "glycan array binding signal (z-score)", "setting": "Gal(a1-3)Gal(b1-4)GlcNAc", "result": -0.16}, {"measurement": "glycan array binding signal (z-score)", "setting": "[20]", "result": -0.151}, {"measurement": "glycan array binding signal (z-score)", "setting": "[21]", "result": -0.164}, {"measurement": "glycan array binding signal (z-score)", "setting": "[22]", "result": -0.154}, {"measurement": "glycan array binding signal (z-score)", "setting": "Gal(a1-3)GalNAc", "result": -0.164}, {"measurement": "glycan array binding signal (z-score)", "setting": "[23]", "result": -0.169}, {"measurement": "glycan array binding signal (z-score)", "setting": "[24]", "result": -0.176}, {"measurement": "glycan array binding signal (z-score)", "setting": "Gal(a1-4)Gal(b1-4)Glc", "result": -0.17}, {"measurement": "glycan array binding signal (z-score)", "setting": "Gal(a1-4)Gal(b1-4)GlcNAc", "result": -0.166}, {"measurement": "glycan array binding signal (z-score)", "setting": "[25]", "result": -0.138}, {"measurement": "glycan array binding signal (z-score)", "setting": "[26]", "result": -0.132}, {"measurement": "glycan array binding signal (z-score)", "setting": "Gal(a1-4)GlcNAc", "result": -0.159}, {"measurement": "glycan array binding signal (z-score)", "setting": "Gal(a1-6)Glc", "result": -0.164}, {"measurement": "glycan array binding signal (z-score)", "setting": "Gal(b1-2)Gal", "result": -0.112}, {"measurement": "glycan array binding signal (z-score)", "setting": "Gal(b1-3)Gal", "result": -0.165}, {"measurement": "glycan array binding signal (z-score)", "setting": "Gal(b1-3)Gal(b1-4)GlcNAc", "result": -0.163}, {"measurement": "glycan array binding signal (z-score)", "setting": "[27]", "result": -0.181}, {"measurement": "glycan array binding signal (z-score)", "setting": "Gal(b1-3)GalNAc", "result": -0.162}, {"measurement": "glycan array binding signal (z-score)", "setting": "[28]", "result": -0.165}]}]}
